Experimental data reported in the supplement of paper PMC4967469.
pIC50: −log10 of the molar value. A lower IC50 marks a more sensitive line; fits outside the tested doses are given as limits. The AUC spans the tested range (256-fold, ending at the top dose) of the same fit; it is 1 without any effect and falls as sensitivity rises. For some assays here: An inferred top dose was calculated from the reported fits. For some assays here: An entry number marks a drug with two screens in the source, which often give different values.

Tests used:
Assay in all cases: Viability of human cancer cell lines after 72 h of drug (GDSC screen)
T0901317 = compound: O=S(=O)(c1ccccc1)N(CC(F)(F)F)c1ccc(C(O)(C(F)(F)F)C(F)(F)F)cc1 [T0901317]; conditions: top dose 10.24 µM; top dose inferred
Method: (§1)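 Human cancer cell lines in 384-well plates, medium with 10% serum, drug for 72 h over a 256-fold dose range (nine 2-fold or five 4-fold steps up to the top dose). Adherent lines were fixed and stained with the nucleic acid dye Syto60, suspension lines read with resazurin; signal relative to control wells, capped at 0 and 100%. One two-parameter sigmoid per drug and line, fitted in a mixed model over all curves with the slope shared within a line.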

MP470 = compound: S=C(NCc1ccc2c(c1)OCO2)N1CCN(c2ncnc3c2oc2ccccc23)CC1 [MP470]; conditions: top dose 20 µM; top dose inferred
Method: as §1

KIN001-270 = compound: Cc1ccc(Nc2cc(-c3cccc(N4C(=O)c5ccccc5C4=O)c3)ncn2)cc1NS(C)(=O)=O [KIN001-270]; conditions: top dose 20 µM; top dose inferred
Method: as §1

LFM-A13 = compound: C/C(O)=C(\C#N)C(=O)Nc1cc(Br)ccc1Br [LFM-A13]; conditions: top dose 16 µM; top dose inferred
Method: as §1

TW-37 = compound: CC(C)c1ccccc1Cc1cc(C(=O)Nc2ccc(S(=O)(=O)c3ccccc3C(C)(C)C)cc2)c(O)c(O)c1O [TW-37]; conditions: top dose 5 µM
Method: as §1

Bicalutamide = compound: CC(O)(CS(=O)(=O)c1ccc(F)cc1)C(=O)Nc1ccc(C#N)c(C(F)(F)F)c1 [Bicalutamide]; conditions: top dose inferred
Method: as §1

AUY922 = compound: CCNC(=O)c1noc(-c2cc(C(C)C)c(O)cc2O)c1-c1ccc(CN2CCOCC2)cc1 [AUY922]; conditions: top dose 0.256 µM; top dose inferred
Method: as §1

Gemcitabine = compound: Nc1ccn([C@@H]2O[C@H](CO)[C@@H](O)C2(F)F)c(=O)n1 [Gemcitabine]; conditions: top dose 1.024 µM
Method: as §1

[1] = top dose 1.024 µM, screen: GDSC drug entry 150
[2] = top dose 10 µM, screen: GDSC drug entry 1502

With “COR-L311 (small cell lung carcinoma, suspension)” the AUC (T0901317) was 0.977, the pIC50 (T0901317) was < 4.99 and the AUC (MP470) was 0.879. The pIC50 (MP470) was < 4.70, the AUC (KIN001-270) was 0.984 and the pIC50 (KIN001-270) was < 4.70.

In the case of MDA-MB-468 (breast, adherent), the AUC (LFM-A13) was 0.981, the pIC50 (LFM-A13) was < 4.80 and the AUC (T0901317) was 0.971. The pIC50 (T0901317) was < 4.99, the AUC (TW-37) was 0.338 and the pIC50 (TW-37) was 6.95. The AUC (Bicalutamide; [1]) was 0.988, the pIC50 (Bicalutamide; [1]) was < 5.99 and the AUC (Bicalutamide; [2]) was 0.986. For the same cell line, the pIC50 (Bicalutamide; [2]) was < 5.00, the AUC (MP470) was 0.507 and the pIC50 (MP470) was 5.89. It also gave an AUC (AUY922) of 0.668, a pIC50 (AUY922) of 7.34 and an AUC (KIN001-270) of 0.961. The pIC50 (KIN001-270) was < 4.70.

SNU-398 (liver, adherent) was tested, and the AUC (LFM-A13) was 0.985, the pIC50 (LFM-A13) was < 4.80 and the AUC (T0901317) was 0.925. The pIC50 (T0901317) was < 4.99, the AUC (Gemcitabine) was 0.89 and the pIC50 (Gemcitabine) was < 5.99. For the same cell line, the AUC (Bicalutamide; [1]) was 0.981, the pIC50 (Bicalutamide; [1]) was < 5.99 and the AUC (Bicalutamide; [2]) was 0.975. For the same cell line, the pIC50 (Bicalutamide; [2]) was < 5.00, the AUC (MP470) was 0.928 and the pIC50 (MP470) was < 4.70. It also gave an AUC (AUY922) of 0.49, a pIC50 (AUY922) of 7.82 and an AUC (KIN001-270) of 0.921. For the same cell line, the pIC50 (KIN001-270) was < 4.70.

With SW1463 (large intestine, adherent) the AUC (LFM-A13) was 0.973, the pIC50 (LFM-A13) was < 4.80 and the AUC (Gemcitabine) was 0.747. For the same cell line, the pIC50 (Gemcitabine) was 6.25, the AUC (TW-37) was 0.922 and the pIC50 (TW-37) was < 5.30. For the same cell line, the AUC (Bicalutamide; [1]) was 0.977, the pIC50 (Bicalutamide; [1]) was < 5.99 and the AUC (Bicalutamide; [2]) was 0.953. For the same cell line, the pIC50 (Bicalutamide; [2]) was < 5.00, the AUC (AUY922) was 0.9 and the pIC50 (AUY922) was < 6.59. For the same cell line, the AUC (KIN001-270) was 0.976 and the pIC50 (KIN001-270) was < 4.70.

In the case of “NCI-H838 (lung adenocarcinoma, adherent)”, the AUC (LFM-A13) was 0.968, the pIC50 (LFM-A13) was < 4.80 and the AUC (T0901317) was 0.975. The pIC50 (T0901317) was < 4.99, the AUC (Gemcitabine) was 0.782 and the pIC50 (Gemcitabine) was 6.35. For the same cell line, the AUC (Bicalutamide; [1]) was 0.987, the pIC50 (Bicalutamide; [1]) was < 5.99 and the AUC (Bicalutamide; [2]) was 0.984. For the same cell line, the pIC50 (Bicalutamide; [2]) was < 5.00, the AUC (MP470) was 0.267 and the pIC50 (MP470) was 6.58. It also gave an AUC (AUY922) of 0.823, a pIC50 (AUY922) of 6.80 and an AUC (KIN001-270) of 0.982. The pIC50 (KIN001-270) was < 4.70.

Work on BT-549 (breast, adherent) yielded an AUC (TW-37) of 0.63, a pIC50 (TW-37) of 6.09 and an AUC (Bicalutamide; [2]) of 0.942. For the same cell line, the pIC50 (Bicalutamide; [2]) was < 5.00.

With UACC-812 (breast, adherent) the AUC (LFM-A13) was 0.988, the pIC50 (LFM-A13) was < 4.80 and the AUC (T0901317) was 0.989. The pIC50 (T0901317) was < 4.99, the AUC (Gemcitabine) was 0.969 and the pIC50 (Gemcitabine) was < 5.99. For the same cell line, the AUC (Bicalutamide; [1]) was 0.991, the pIC50 (Bicalutamide; [1]) was < 5.99 and the AUC (MP470) was 0.98. The pIC50 (MP470) was < 4.70, the AUC (AUY922) was 0.906 and the pIC50 (AUY922) was < 6.59. The AUC (KIN001-270) was 0.985 and the pIC50 (KIN001-270) was < 4.70.

Work on H2810 (mesothelioma, adherent) yielded an AUC (TW-37) of 0.625 and a pIC50 (TW-37) of 6.14.

In the case of “COR-L303 (small cell lung carcinoma, suspension)”, the AUC (T0901317) was 0.912, the pIC50 (T0901317) was < 4.99 and the AUC (MP470) was 0.858. For the same cell line, the pIC50 (MP470) was 4.81, the AUC (KIN001-270) was 0.987 and the pIC50 (KIN001-270) was < 4.70.

With MDA-MB-231 (breast, adherent) the AUC (LFM-A13) was 0.947, the pIC50 (LFM-A13) was < 4.80 and the AUC (T0901317) was 0.975. For the same cell line, the pIC50 (T0901317) was < 4.99, the AUC (TW-37) was 0.365 and the pIC50 (TW-37) was 6.89. For the same cell line, the AUC (MP470) was 0.892, the pIC50 (MP470) was < 4.70 and the AUC (AUY922) was 0.747. For the same cell line, the pIC50 (AUY922) was 7.06, the AUC (KIN001-270) was 0.984 and the pIC50 (KIN001-270) was < 4.70.

For PC-3 (prostate, adherent), the AUC (LFM-A13) was 0.976, the pIC50 (LFM-A13) was < 4.80 and the AUC (T0901317) was 0.976. The pIC50 (T0901317) was < 4.99, the AUC (TW-37) was 0.631 and the pIC50 (TW-37) was 6.11. The AUC (MP470) was 0.928, the pIC50 (MP470) was < 4.70 and the AUC (KIN001-270) was 0.948. For the same cell line, the pIC50 (KIN001-270) was < 4.70.
